# Test results published in the antibiotic and cytotoxicity screens of Wong et al. (2023).
# Some of the results follow.
# Tested on: HepG2
# Assay: cytotoxicity call (relative viability < 0.9)
# Details: 10 µM
row,SMILES,cytotoxicity call
1,C[C@H](CO)N1C[C@H](C)[C@H](CN(C)Cc2ccc(-c3ccccc3)cc2)OCc2ccccc2-c2ccccc2C1=O,inactive
2,COc1ccc(NC(=O)N(C)C[C@H]2Oc3c(NC(=O)C4CCOCC4)cccc3C(=O)N([C@@H](C)CO)C[C@H]2C)cc1,inactive
3,Cc1ccc(-c2ccc3c(c2)O[C@@H](CN(C)C(=O)Nc2ccc(C(F)(F)F)cc2)[C@H](C)CN([C@@H](C)CO)S3(=O)=O)cc1,inactive
4,Cc1noc(C)c1S(=O)(=O)N(C)C[C@@H]1OCCCC[C@H](C)Oc2ccc(NS(C)(=O)=O)cc2C(=O)N([C@@H](C)CO)C[C@H]1C,inactive
5,Nc1ccc(S(=O)(=O)Nc2nccs2)cc1,inactive
6,O=C1NC(=O)NC2(N1)C(=O)Nc1ccccc12,inactive
7,C[C@H]1CN([C@@H](C)CO)C(=O)Cc2cc(NC(=O)Nc3ccccc3)ccc2O[C@@H]1CN(C)Cc1ccc(Oc2ccccc2)cc1,active
8,CCCNC(=O)Nc1ccc2c(c1)C(=O)N(C)C[C@@H](OC)[C@@H](C)CN(Cc1ccc(-c3ccccn3)cc1)[C@H](C)CO2,inactive
9,C[C@H](CO)N1C[C@H](C)[C@H](CN(C)S(=O)(=O)c2ccc(F)cc2)OCCCC[C@H](C)Oc2ccc(NC(=O)Nc3ccc(F)cc3)cc2C1=O,inactive
10,C[C@@H]1CCCCO[C@@H](CN(C)CC2CCCCC2)[C@@H](C)CN([C@@H](C)CO)C(=O)c2cc(NC(=O)Nc3ccc4c(c3)OCO4)ccc2O1,active
11,COc1ccc(S(=O)(=O)N(C)C[C@H]2OCCCC[C@@H](C)Oc3ccc(NS(=O)(=O)c4cn(C)cn4)cc3C(=O)N([C@@H](C)CO)C[C@@H]2C)cc1,inactive
12,Cc1ccc(S(=O)(=O)N(C)C[C@H]2Oc3ccc(NC(=O)Cn4cnnn4)cc3CC(=O)N([C@H](C)CO)C[C@H]2C)cc1,inactive
13,O=C(Cn1cc(COc2ccc(Cl)c(Cl)c2)nn1)NS(=O)(=O)c1cccc(OC(F)F)c1,inactive
14,COc1ccc([C@H]([C@@H](O)Cc2ccccc2)N(CC#C[C@@H](O[Si](c2ccccc2)(c2ccccc2)C(C)(C)C)c2ccccc2)[C@@H](Cc2ccccc2)C(OC)OC)cc1,inactive
15,COc1cccc(NC(=O)N[C@H]2CC[C@H](CC(=O)N3CCN(C)CC3)O[C@@H]2CO)c1,inactive
16,C[C@H]1CN([C@@H](C)CO)C(=O)c2cc(NC(=O)Cn3cnnn3)ccc2O[C@H]1CN(C)Cc1ccc(C(=O)Nc2ccccc2N)cc1,inactive
17,O=C(CN1CCOCC1)N[C@H]1CC[C@H](CCNS(=O)(=O)c2ccccc2F)O[C@@H]1CO,inactive
18,C[C@@H]1CN([C@@H](C)CO)C(=O)c2cccc(NC(=O)CCCCCC(=O)Nc3ccccc3N)c2O[C@H]1CN(C)C(=O)Nc1cccc2ccccc12,inactive
19,Cc1cn(-c2cc(NC(=O)c3ccc(C)c(Nc4nccc(-c5cnccn5)n4)c3)cc(C(F)(F)F)c2)cn1,inactive
20,C[C@@H]1CN([C@H](C)CO)S(=O)(=O)c2ccc(C#Cc3ccncc3)cc2O[C@H]1CN(C)S(=O)(=O)c1ccc(F)cc1,active

row,SMILES,cytotoxicity call
1,COc1ccc2c(c1)c(-c1cccc(C)c1)nn2-c1ccccc1,inactive
2,COCC(=O)N1CC[C@]2(CC1)CN([C@H](CO)c1c2c2ccc(cc2n1C)OC)C(=O)CN1CCOCC1,inactive
3,C[C@@H]1CCCCO[C@@H](CN(C)Cc2ccc3c(c2)OCO3)[C@@H](C)CN([C@H](C)CO)C(=O)c2cc(NS(=O)(=O)c3ccccc3)ccc2O1,inactive
4,COc1ccc(CNCC(=O)O)cc1,inactive
5,Cc1ccc(S(=O)(=O)Nc2ccc3c(c2)C(=O)N([C@H](C)CO)C[C@@H](C)[C@@H](CN(C)C(=O)C2CCCCC2)OCCCC[C@H](C)O3)cc1,inactive
6,Nc1nnc(N[C@H]2CCCCNC2=O)[nH]1,inactive
7,C[C@H](CO)N1C[C@H](C)[C@@H](CN(C)Cc2ccc(C(=O)Nc3ccccc3N)cc2)Oc2ccc(NS(=O)(=O)c3cn(C)cn3)cc2CC1=O,inactive
8,COc1ccc(-c2ccc3c(c2)O[C@H](CN(C)CC2CCOCC2)[C@@H](C)CN([C@@H](C)CO)S3(=O)=O)cc1,inactive
9,CC12CCC3c4ccc(OC(=O)c5ccccc5)cc4CCC3C1CCC2O (stereo not given),inactive
10,C[C@@H]1CN([C@@H](C)CO)C(=O)c2cc(NS(=O)(=O)c3ccc(Cl)cc3)ccc2O[C@H]1CN(C)Cc1ccc(C(=O)Nc2ccccc2N)cc1,inactive
11,COc1ccc(NC(=O)Nc2ccc3c(c2)C(=O)N([C@@H](C)CO)C[C@H](C)[C@@H](CN(C)C(=O)Cc2ccccc2)OCCCC[C@@H](C)O3)cc1,inactive
12,C[C@H]1CN([C@@H](C)CO)C(=O)c2cccc(NC(=O)Nc3cccc4ccccc34)c2O[C@@H]1CN(C)C(=O)Nc1ccc(F)cc1,inactive
13,C[C@H]1CN([C@@H](C)CO)C(=O)c2cc(NS(=O)(=O)c3ccccc3)ccc2O[C@H]1CN(C)S(=O)(=O)c1ccccc1,inactive
14,CCn1[nH]c(N)c2c(=O)[nH]c(=O)cc1-2,inactive
15,C[C@@]1(c2cccs2)CC(c2cccs2)=Nc2ccccc2N1,inactive
16,COc1ccc(-c2coc3cc(OC)ccc3c2=O)c(O)c1,inactive
17,C[C@H](CO)N1C[C@H](C)[C@H](CN(C)S(=O)(=O)c2cccs2)Oc2ccc(NS(=O)(=O)c3ccc(F)cc3)cc2C1=O,inactive
18,Cc1ccc(S(=O)(=O)Nc2ccc3c(c2)CC(=O)N([C@H](C)CO)C[C@@H](C)[C@H](CN(C)Cc2ccc(Cl)c(Cl)c2)O3)cc1,inactive
19,Cc1noc(C)c1S(=O)(=O)Nc1ccc2c(c1)C(=O)N([C@H](C)CO)C[C@H](C)[C@@H](CN(C)S(=O)(=O)c1cn(C)cn1)O2,inactive
20,C[C@H](CO)N1C[C@H](C)[C@H](CN(C)Cc2cccc(C(F)(F)F)c2)Oc2ncc(C#CCN(C)C)cc2C1=O,inactive
